{"source": "paper PMC4336329", "about": "(PLoS ONE, 2015)", "note": "Screen size: about 310,000 compounds; about 14,000 (4.5%) showed an effect of 50% or more. The effect is printed as a negative number. This is one part of the list. Where a SMILES comes first, the peptide text is derived from it. [ ]: non-standard residue; d: D form. Inp = O=C(O)C1CCNCC1;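 note: peak tail current of the secondary pulse compared with the same well before compound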"}
{"target": "human ether-à-go-go-related gene (hERG) potassium channel (human, UniProt Q12809)", "sequence (Q12809 whole entry, looked up)": "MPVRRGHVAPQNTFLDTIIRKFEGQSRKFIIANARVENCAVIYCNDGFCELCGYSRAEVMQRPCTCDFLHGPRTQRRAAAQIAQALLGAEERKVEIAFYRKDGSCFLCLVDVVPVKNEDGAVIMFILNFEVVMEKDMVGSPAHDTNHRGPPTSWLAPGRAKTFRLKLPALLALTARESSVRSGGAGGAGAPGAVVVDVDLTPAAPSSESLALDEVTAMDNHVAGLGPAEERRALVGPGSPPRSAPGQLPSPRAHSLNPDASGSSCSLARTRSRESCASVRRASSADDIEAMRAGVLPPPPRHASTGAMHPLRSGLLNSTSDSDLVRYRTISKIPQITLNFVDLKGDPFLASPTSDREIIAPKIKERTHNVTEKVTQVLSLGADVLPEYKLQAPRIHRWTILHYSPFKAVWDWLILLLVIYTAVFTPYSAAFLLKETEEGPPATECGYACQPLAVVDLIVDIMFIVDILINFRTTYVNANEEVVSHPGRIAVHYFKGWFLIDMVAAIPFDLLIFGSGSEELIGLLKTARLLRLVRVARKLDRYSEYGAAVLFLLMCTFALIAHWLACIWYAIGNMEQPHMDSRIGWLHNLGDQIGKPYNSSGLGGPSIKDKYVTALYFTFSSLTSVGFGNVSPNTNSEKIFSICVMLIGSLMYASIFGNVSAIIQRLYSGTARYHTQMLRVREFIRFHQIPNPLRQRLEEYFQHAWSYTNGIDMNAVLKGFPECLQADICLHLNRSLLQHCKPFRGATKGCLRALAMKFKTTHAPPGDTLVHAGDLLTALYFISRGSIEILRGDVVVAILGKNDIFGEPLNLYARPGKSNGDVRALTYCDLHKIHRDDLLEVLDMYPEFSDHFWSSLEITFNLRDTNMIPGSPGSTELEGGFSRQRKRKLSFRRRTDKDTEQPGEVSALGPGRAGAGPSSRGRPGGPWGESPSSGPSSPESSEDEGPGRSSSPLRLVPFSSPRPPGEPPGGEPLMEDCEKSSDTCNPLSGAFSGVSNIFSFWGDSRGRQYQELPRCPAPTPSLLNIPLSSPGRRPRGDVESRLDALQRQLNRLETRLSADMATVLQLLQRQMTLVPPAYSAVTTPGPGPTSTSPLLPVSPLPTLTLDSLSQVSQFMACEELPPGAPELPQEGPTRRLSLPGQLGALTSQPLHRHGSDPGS", "experiment": "primary screen, population patch clamp on CHO cells stably expressing hERG", "units": {"hERG current change (%, negative = inhibition) at 10uM": "%"}}
{"smiles": "CCc1nc2cccnc2n1-c1ccc(CC(=O)NCCOC)cc1", "hERG current change (%, negative = inhibition) at 10uM": 17}
{"smiles": "CCCCCCCCS(=O)CCC(=O)O", "note": "(stereo not shown)", "hERG current change (%, negative = inhibition) at 10uM": 21.6}
{"smiles": "N#Cc1ccc(C(=O)CSc2n[nH]c(=O)n2-c2cccnc2)cc1", "hERG current change (%, negative = inhibition) at 10uM": -19.3}
{"smiles": "CC(=O)c1ccc(N2CCN(C(=S)NCc3ccco3)CC2)cc1", "hERG current change (%, negative = inhibition) at 10uM": -47}
{"smiles": "O=C1NC(=O)C(=C2CCCCCC2)S1", "hERG current change (%, negative = inhibition) at 10uM": 1.1}
{"smiles": "CCc1ccc(C(C(=O)NC(C)(C)CC)N(Cc2ccco2)C(=O)Cn2nnc3ccccc32)cc1", "note": "(stereo not shown)", "hERG current change (%, negative = inhibition) at 10uM": 12.9}
{"smiles": "Cc1ccc(CS(=O)(=O)CCC(=O)NCCC(C)C)cc1", "hERG current change (%, negative = inhibition) at 10uM": 3.21}
{"smiles": "COc1ccc(-c2nnc(SC)o2)c(OC)c1", "hERG current change (%, negative = inhibition) at 10uM": 9.73}
{"smiles": "C/C(=N\\N=C1\\NC(=O)C(CC(=O)Nc2ccc(C)c(Cl)c2)S1)C(C)(C)C", "note": "(stereo not shown)", "hERG current change (%, negative = inhibition) at 10uM": 8.73}
{"smiles": "CCN(CC)S(=O)(=O)c1cccc(NC(=O)COc2ccc(F)cc2Br)c1", "hERG current change (%, negative = inhibition) at 10uM": 10.7}
{"smiles": "Clc1ccc(CCNc2ncnc3c2nnn3Cc2ccccc2)cc1", "hERG current change (%, negative = inhibition) at 10uM": 1.86}
{"smiles": "Cc1cccc(C)c1N1CCN(c2c(C)cccc2C)CC1", "hERG current change (%, negative = inhibition) at 10uM": 16.7}
{"smiles": "COc1ccccc1CNC(=O)C(C)NS(=O)(=O)c1ccc(Br)cc1", "note": "(stereo not shown)", "hERG current change (%, negative = inhibition) at 10uM": 4.27}
{"smiles": "CC(C)c1ccc(NC(=O)COC(=O)c2c[nH]c(=O)[nH]c2=O)cc1", "hERG current change (%, negative = inhibition) at 10uM": 13.2}
{"smiles": "O=C1CS/C(=N/N=C/c2ccccc2)N1Cc1ccco1", "hERG current change (%, negative = inhibition) at 10uM": 1.4}
{"smiles": "CN1CCCC1CCNc1ccc2oc3ccccc3c(=O)c2c1", "note": "(stereo not shown)", "hERG current change (%, negative = inhibition) at 10uM": -33.9}
{"smiles": "Cc1cc(C)c2c(C)[nH]nc2n1", "hERG current change (%, negative = inhibition) at 10uM": 20.7}
{"smiles": "Cc1ccccc1C(=O)NNC(=S)NC(=O)c1cccnc1", "hERG current change (%, negative = inhibition) at 10uM": 15.4}
{"smiles": "O=c1cc(N2CCCCC2)c(-c2ccccc2)nn1Cc1ccc(F)cc1", "hERG current change (%, negative = inhibition) at 10uM": -14.6}
{"smiles": "CCOC(=O)C1=C(c2ccccc2)N=c2s/c(=C\\c3ccco3)c(=O)n2C1c1cccs1", "note": "(stereo not shown)", "hERG current change (%, negative = inhibition) at 10uM": 24.9}
{"smiles": "O=C(NCCN=C1NS(=O)(=O)c2ccccc21)c1ccco1", "hERG current change (%, negative = inhibition) at 10uM": 0.103}
{"smiles": "CCC12CC3CC(C1)CC(C(=O)O)(C3)C2", "hERG current change (%, negative = inhibition) at 10uM": 0.3}
{"smiles": "CCCC(C(=O)NC1CCCCC1)N(Cc1ccco1)C(=O)CNS(=O)(=O)c1ccccc1", "note": "(stereo not shown)", "hERG current change (%, negative = inhibition) at 10uM": -19}
{"smiles": "CC1=C(C(N)=O)C(c2ccccc2)n2nc(-c3ccncc3)nc2N1", "note": "(stereo not shown)", "hERG current change (%, negative = inhibition) at 10uM": 11.2}
{"smiles": "C/C(=N\\NC(=O)c1ccc(F)cc1)c1cccc(NC(=O)c2ccco2)c1", "hERG current change (%, negative = inhibition) at 10uM": -21.6}
{"smiles": "Cc1nn(-c2ccccc2)c(N2CCCCC2)c1/C=N/O", "hERG current change (%, negative = inhibition) at 10uM": -6.56}
{"smiles": "Cc1cc(=O)c2ccccc2s1", "hERG current change (%, negative = inhibition) at 10uM": -3.41}
{"smiles": "COC(=O)Cc1ccc(NC(=S)NNC(=O)C2CC2)cc1", "hERG current change (%, negative = inhibition) at 10uM": 8.2}
{"smiles": "Cc1ccnc(N2CCN(c3cc(C)c(C#N)c4nc5ccccc5n34)CC2)c1", "hERG current change (%, negative = inhibition) at 10uM": -8.93}
{"smiles": "N[C@@H](Cc1ccccc1)C(=O)N1CCC(C(=O)NCC(=O)NCC(=O)O)CC1", "note": "(H-F[Inp]GG-OH)", "hERG current change (%, negative = inhibition) at 10uM": 16.7}
{"smiles": "CN(C)CCN(Cc1ccccc1)S(=O)(=O)c1ccc2c(c1)n(C)c(=O)c(=O)n2C", "hERG current change (%, negative = inhibition) at 10uM": -10.5}
{"smiles": "Cn1c(=O)c2c(SCC(=O)Nc3nccs3)nc(C3CC3)nc2n(C)c1=O", "hERG current change (%, negative = inhibition) at 10uM": 17.6}
{"smiles": "CC(=O)c1ccc(OC(C)C(=O)OCC(=O)NCCc2ccccc2)cc1", "note": "(stereo not shown)", "hERG current change (%, negative = inhibition) at 10uM": -6.63}
{"smiles": "Cc1cccc(OCCC(=O)NNC(=O)c2ccoc2C)c1", "hERG current change (%, negative = inhibition) at 10uM": -3.74}
{"smiles": "CN1CCN(c2cc(N3CCN(C(=O)c4ccco4)CC3)c3c4c(onc24)-c2ccccc2C3=O)CC1", "hERG current change (%, negative = inhibition) at 10uM": -0.549}
{"smiles": "CCc1nccn1Cc1cc(C=O)ccc1OC.Cl", "hERG current change (%, negative = inhibition) at 10uM": 17.3}
{"smiles": "O=C(CSc1n[nH]c(=O)[nH]c1=O)N/N=C/C=C/c1ccccc1", "hERG current change (%, negative = inhibition) at 10uM": 18.1}
{"smiles": "O=C(CN1C(=O)S/C(=C\\c2ccccn2)C1=O)Nc1ccccc1", "hERG current change (%, negative = inhibition) at 10uM": 16.3}
{"smiles": "COc1cccc(N=Cc2c[nH][nH]c2=O)c1", "hERG current change (%, negative = inhibition) at 10uM": 5.26}
{"smiles": "CCc1ccccc1NC(=O)NC1CCCCCCC1", "hERG current change (%, negative = inhibition) at 10uM": 18.1}
{"smiles": "CSCC[C@H](NC(=O)c1ccc2ccccc2c1)C(=O)N1CCC2(CC1)NCCc1[nH]cnc12", "hERG current change (%, negative = inhibition) at 10uM": -1.09}
{"smiles": "O=C(c1ccc(Cl)cc1)C1CCCN(C(=O)c2csnn2)C1", "note": "(stereo not shown)", "hERG current change (%, negative = inhibition) at 10uM": 0.734}
{"smiles": "COc1cccc(CNC(=O)CCC2CCCN(C(=O)c3cccc4c(C)c(C)[nH]c34)C2)c1", "note": "(stereo not shown)", "hERG current change (%, negative = inhibition) at 10uM": 19.8}
{"smiles": "COc1ccnc(Oc2ccc(F)cc2)c1C#N", "hERG current change (%, negative = inhibition) at 10uM": 3.33}
{"smiles": "CCCc1nc2c(s1)CCc1onc(-c3ccc(Br)cc3)c1-2", "hERG current change (%, negative = inhibition) at 10uM": 8.88}
{"smiles": "Cc1ccc(S(=O)(=O)N2CCCCCC2)cc1C(=O)Nc1cccnc1", "hERG current change (%, negative = inhibition) at 10uM": -45.5}
